Test results: paper PMC4336329 (PLoS ONE, 2015)
The campaign covered roughly 310,000 compounds. About 2,200 (0.71%) showed an effect of 50% or more. Effects have a minus sign here. This is one part of the list.

molecular target: human ether-à-go-go-related gene (hERG) potassium channel (human, UniProt Q12809); assay: primary screen, population patch clamp on CHO cells stably expressing hERG
Sequence (Q12809 whole entry, looked up): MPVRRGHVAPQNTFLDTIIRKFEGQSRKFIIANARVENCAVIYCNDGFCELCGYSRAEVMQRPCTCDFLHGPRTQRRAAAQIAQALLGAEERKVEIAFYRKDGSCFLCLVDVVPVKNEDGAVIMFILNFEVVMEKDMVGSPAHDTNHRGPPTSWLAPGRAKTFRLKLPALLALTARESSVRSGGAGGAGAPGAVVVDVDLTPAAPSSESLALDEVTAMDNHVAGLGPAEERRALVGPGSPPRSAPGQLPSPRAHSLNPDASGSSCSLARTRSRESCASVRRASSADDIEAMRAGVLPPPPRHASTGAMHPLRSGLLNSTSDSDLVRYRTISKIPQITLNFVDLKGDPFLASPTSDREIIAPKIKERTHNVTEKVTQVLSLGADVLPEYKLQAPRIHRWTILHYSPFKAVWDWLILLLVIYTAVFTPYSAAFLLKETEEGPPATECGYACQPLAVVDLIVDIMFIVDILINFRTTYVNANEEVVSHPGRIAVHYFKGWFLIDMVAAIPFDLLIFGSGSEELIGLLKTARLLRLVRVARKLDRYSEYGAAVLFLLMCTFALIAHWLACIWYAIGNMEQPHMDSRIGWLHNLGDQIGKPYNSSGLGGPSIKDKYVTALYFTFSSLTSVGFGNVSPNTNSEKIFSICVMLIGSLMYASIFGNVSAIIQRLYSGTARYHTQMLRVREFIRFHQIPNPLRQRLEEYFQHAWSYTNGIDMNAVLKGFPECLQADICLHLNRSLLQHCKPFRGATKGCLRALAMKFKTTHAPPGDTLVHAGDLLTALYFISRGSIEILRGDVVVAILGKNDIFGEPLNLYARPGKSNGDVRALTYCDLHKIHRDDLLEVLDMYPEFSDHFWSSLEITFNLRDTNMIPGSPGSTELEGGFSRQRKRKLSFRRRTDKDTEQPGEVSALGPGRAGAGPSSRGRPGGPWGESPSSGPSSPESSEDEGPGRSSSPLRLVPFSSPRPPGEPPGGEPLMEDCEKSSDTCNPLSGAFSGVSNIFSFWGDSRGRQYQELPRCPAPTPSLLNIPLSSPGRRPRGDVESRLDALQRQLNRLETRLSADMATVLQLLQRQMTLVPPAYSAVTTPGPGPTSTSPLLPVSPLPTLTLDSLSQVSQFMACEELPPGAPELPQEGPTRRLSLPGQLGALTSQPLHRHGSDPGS

Row | Structure (SMILES) | hERG current change (%, negative = inhibition) at 1uM [%]
1 | COc1ccccc1NS(=O)(=O)c1c(C)nc2sccn2c1=O | -8.37
2 | Cc1ccc(N(C(=O)Cc2cccs2)C(C(=O)NC2CCCCC2)c2ccccn2)cc1C (stereo not shown) | 9.66
3 | CC(Oc1ccc(Cl)cc1Cl)C(=O)NC(=S)N1CCc2ccccc21 (stereo not shown) | 8.03
4 | CC(C)(C)NC(=O)NC(=O)COc1ccccc1C#N | 16.5
5 | Cc1nc2ccccn2c1C(=O)N/N=C/c1ccc2c(c1)OCO2 | 9.96
6 | NNC(=O)c1nc[nH]c1C(=O)Nc1ccccn1 | 3.38
7 | O=C(O)C1CCN(C(=O)COc2ccc3c(c2)oc(=O)c2ccccc23)CC1 | 13.9
8 | COC(=O)c1[nH]c2ccccc2c1NC(=O)Oc1ccccc1 | 8.27
9 | Clc1nnc2ccc(-c3ccccc3)nn12 | 12.4
10 | COc1cccc(CNC(=O)CCl)c1 | 4.39
11 | CCC(C)NC(=O)Nc1ccc(C)cc1C (stereo not shown) | 20.1
12 | CCN(Cc1nc2cc(Cl)ccc2c(=O)[nH]1)C(=O)C1CC(=O)N(c2cccc3ccccc23)C1 (stereo not shown) | 1.29
13 | COc1ccc(CC(=O)Nc2ccc(-c3ccc4nnc(C)n4n3)cc2)cc1OC | 12.3
14 | COC(=O)c1c(NC(=O)c2ccccc2F)sc(C(=O)N2CCOCC2)c1C | 2.83
15 | CCCC(=O)Nc1ccc2oc(-c3cccnc3)nc2c1 | 1.43
16 | COCC(C)N=C1NN=C(c2cccs2)C(CC(=O)O)S1 (stereo not shown) | 15.3
17 | C=CCN(C(=O)C1CSC2(C)CCC(=O)N12)c1nc(-c2ccccc2)cs1 (stereo not shown) | 6.92
18 | O=C1c2cccc([N+](=O)[O-])c2C(=O)N1c1ccccc1 | 2.96
19 | COc1ccc(CN2CCC(CO)(CCOc3ccccc3)CC2)cc1C | -77.6
20 | CSc1ccccc1NC(=O)CN(C)C(=O)C1CC(=O)N(C(C)c2ccccc2)C1 (stereo not shown) | 13.1
21 | COc1cccc(N2CCN(S(=O)(=O)c3ccc4c(c3)NC(=O)CS4)CC2)c1 | 20.6
22 | COc1ccc(-c2nc(C#N)c(NCc3cccnc3)o2)cc1OC | 9.8
23 | COc1ccc(C)cc1S(=O)(=O)Nc1ccc(-n2c(C)nc3ccccc3c2=O)cc1 | -7.5
24 | CCOc1ccccc1CNC(=O)c1ccc2nc(N3CCOCC3)sc2c1 | 8.5
25 | Cc1nc2c(o1)CCc1ccccc1C2O (stereo not shown) | 11.1
